Molecules are shown by their SMILES.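 Dose response: 5 concentrations. Exposure: 48 h. Format: 96-well plates. Endpoint: linear interpolation; highest concentration if not reached. GI50 marks 50% less growth. TGI denotes the concentration required for complete inhibition of growth.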 Some results are limits rather than exact numbers.

For the experiment, the system named is NCI-H322M lung. The experiment can be described thus: growth of human tumour cells (NCI), 48 h.
On to `Cc1cc2c(C)c3cc(C)c(N)cc3nc2cc1N`, for which the GI50 was 0.543 µM and the TGI was 4.04 µM.
`O=C(c1cccs1)c1c(C(F)(F)F)n([O-])c2ccc(C(F)(F)F)cc2[n+]1=O`: the GI50 was 1.67 µM and the TGI came to 3.18 µM.
`COc1ccccc1/C=C1\Sc2scc(-c3cccc([N+](=O)[O-])c3)[n+]2C1=O`: the TGI was 39.1 µM.
As for `Cc1cccc(/C=N/NC(=S)NCc2ccccn2)n1`, the TGI is > 100 µM.
`COc1cc2cc(Oc3ccc(NC(=O)Nc4ccc(F)c(C(F)(F)F)c4)cc3)c(C)nc2cc1OCCN1CCCCC1`: the GI50 is 1.67 µM and the TGI turned out to be 3.05 µM.
The matching figures for `O=[N+]([O-])c1ccc(Sc2ncccn2)c([N+](=O)[O-])c1`: 12.1 µM and 24.6 µM.
On to `NS(=O)(=O)c1ccc(NC(=O)c2cc([N+](=O)[O-])cc([N+](=O)[O-])c2)cc1`, for which the TGI was > 100 µM.
`Cn1ncc2cc3c(Nc4ccc(Cl)cc4)cccc3nc21` showed a TGI of 68.6 µM.
Turning to `COc1ccc(/C(=C/c2cc(OC)c(OC)c(OC)c2)[N+](=O)[O-])cc1`, the GI50 was 1.78 µM and the TGI turned out to be 3.66 µM.
For `CCC1(OC(=O)CN2CCN(CCO)CC2)C(=O)OCc2c1cc1n(c2=O)Cc2cc3ccccc3nc2-1` (configuration not stated), the TGI was 11.8 µM.
Still for that read-out and setting: to `CC(=O)OCC1OC(Nc2ccc3nc(C)n(-c4cccc(C)c4)c(=O)c3c2)C(OC(C)=O)C(OC(C)=O)C1OC(C)=O` (configuration not stated) belongs > 62.5 µM.
Turning to `ClC(Cl)(Cl)C1CCOC1n1nc2ccccc2n1` (configuration not stated), the TGI was > 100 µM.
Consider `Cc1c2c(c(C)n1-c1ccccc1)C(=O)N(CCSC(=N)N)C2=O`, for which the TGI is > 100 µM.
On to `CCOC(=O)Cc1c(Cc2[nH]c(C(=O)OCc3ccccc3)c(CC(=O)OCC)c2CC(=O)OCC)[nH]c(C(=O)OCc2ccccc2)c1CC(=O)OCC`, for which the TGI is > 100 µM.
Regarding `O=C1C2=C(c3ccccc31)C(c1cccc(Cl)c1)NC(=S)N2` (configuration not stated), the TGI is > 100 µM.
In the case of `COc1cc2cc(Oc3ccc(NC(=O)Nc4cccc(C(F)(F)F)c4)cc3)c(C)nc2cc1OCCN1CCCCC1`, the GI50 was 1.81 µM and the TGI is 3.2 µM.
For the compound `COC(=O)[C@@H]1C=C[C@@H](C#N)n2c(=O)n(-c3ccccc3)c(=O)n21`, the TGI was > 100 µM.
Same read-out and setting: to `CCOC(=O)N1CCN(Cc2cc(=O)n3cc(C)ccc3n2)CC1` belongs > 100 µM; to `FC(F)(F)P1C2C=CC(CC2)C1(F)F` (configuration not stated), > 100 µM.
On the same count and under the same terms, to `CCOC(=O)C1(Cc2ccccc2)Cc2cc3c(cc2C1)CCC3` belongs > 100 µM.
With `COc1cccc(NC(=O)c2sc3nc4c(cc3c2N)CCCC4)c1`, the GI50 was 4.05 µM and the TGI was > 100 µM.
`Cc1ccc(-c2c(C#N)c(N)nc(N3CCOCC3)c2C#N)o1`: the GI50 was 44.5 µM and the TGI was > 100 µM.
`O=C(c1ccc(Cl)cc1Cl)N(Cc1cccnc1)C(=S)N(Cc1cccnc1)C(=O)c1ccc(Cl)cc1Cl` showed a TGI of 12 µM.
On the same count and under the same terms, to `CC[C@@H](CCCC[C@@H]1CC[C@H]2CC(=O)C[C@@H]12)OC` belongs > 100 µM; to `N[C@H]1C2C3CC4C5CC(C42)C1(c1ccccc1)C53` (some centres not stated), > 100 µM.
With `COC(=O)c1cnc(=O)n(C2CC(O)C(CO)O2)c1` (configuration not stated), the GI50 is > 100 µM and the TGI is > 100 µM.
Regarding `CC(C)C1CC=NN1C(=O)OC(C)(C)C` (configuration not stated), the TGI is > 100 µM.
Same read-out and setting: to `CC(=O)OC1/C(=C/c2ccc([N+](=O)[O-])cc2)C[C@H]2[C@@H]3CC=C4C[C@@H](OC(C)=O)CC[C@]4(C)[C@H]3CC[C@]12C` (some centres not stated) belongs > 100 µM; to `S=c1[nH]nc(COc2ccc(Cl)cc2)o1`, > 100 µM.
For `COc1ccc(NC(=O)CC(=O)n2nc(C)c(N=Nc3ccc(C)c(C)c3)c2C)cc1`, the TGI is > 100 µM.
Turning to `COc1cc2c3c(n(C)c(=O)c2cc1OC)-c1cc2c(cc1/C3=C\CCCCN)OCO2`, the GI50 was 2.51 µM and the TGI was 9.58 µM.
In the case of `O=C1C2=C(c3ccccc31)C(c1ccc(Cl)cc1)N1C(=O)CCSC1=N2` (configuration not stated), the TGI is > 100 µM.
Take `O=C(O)C(CS)NCc1c2ccccc2[n+]([O-])c2ccccc12` (configuration not stated): the TGI was > 100 µM.
In the case of `O=C(O)c1cccc(S(=O)(=O)NN2C(=O)CSC2c2ccccc2)c1` (configuration not stated), the TGI is > 100 µM.
Same read-out and setting: to `CCN(CC)CCNC(=O)c1ccc([N+](=O)[O-])cc1OC` belongs > 100 µM.
For `CC(=O)Oc1ccccc1[C@H]1CC(=O)C[C@H](c2ccccc2OC(C)=O)C12C(=O)c1ccccc1C2=O`, the TGI is > 100 µM.
With `Clc1ccccc1/C=C/c1nsc(/C=C/c2ccccc2Cl)n1`, the TGI was > 100 µM.
As for `CCCCCCCCCCCCCCCC(=O)ON1C(=S)NC(C)(c2ccccc2)C1=S` (configuration not stated), the TGI was > 100 µM.
Turning to `O=C(Nc1ccncc1)C(=O)c1cn(S(=O)(=O)c2ccc(Br)cc2)c2ccccc12`, the GI50 was > 100 µM and the TGI was > 100 µM.
Take `O=c1[nH]c2cc(C(F)(F)F)ccc2nc1Cc1ccccc1`: the TGI is > 100 µM.
For `CC(=O)N1c2ccccc2C(C)(C)OC1C(Cl)(Cl)Cl` (configuration not stated), the TGI is > 100 µM.
In the case of `CCOC(=O)/N=c1\ss/c(=N\C(=S)N(C)C)n1-c1ccccc1`, the GI50 was > 100 µM and the TGI was > 100 µM.
As to `CC(C)Nc1[nH]c(C(=O)c2ccccc2)c(N)c1C(=S)Nc1ccccc1`, the TGI was > 100 µM.
On the same count and under the same terms, to `NNC(=O)/C(=C/c1cccc([N+](=O)[O-])c1)NC(=O)c1ccccc1` belongs > 100 µM.
For `CC1(C)N=C(N)N=C(N)N1c1cccc(/C=C/C=C/c2cccc([N+](=O)[O-])c2)c1`, the GI50 was 6.75 µM and the TGI came to 19.9 µM.
In the case of `COc1cc([C@@H]2c3cc4c(cc3[C@H](OC3OC5COC(C(C)C)OC5C(O)C3O)C3COC(=O)[C@@H]32)OCO4)cc(OC)c1O` (some centres not stated), the TGI is 80.7 µM.
On the same count and under the same terms, to `CC(C)=CC(=O)CC(=O)C(=O)Nc1ccc(C)c(C)c1` belongs > 100 µM.
Still for that read-out and setting: to `CSc1c(C(=O)Nc2ccc(C)cc2)c(N)nn1-c1ccccc1` belongs > 100 µM; to `O=[N+]([O-])c1ccc(-c2ccc(/C=N/n3c(-c4ccc(Cl)cc4)n[nH]c3=S)o2)cc1`, > 100 µM; to `CCOC(=O)/C(C1=N[C@H](C(=O)OCC)CS1)=C(\C)O`, > 100 µM.
The compound `C[C@H](CCC1=NCCN1)[C@H]1CC[C@H]2[C@@H]3[C@H](O)C[C@@H]4C[C@H](O)CC[C@]4(C)[C@H]3CC[C@]12C` yielded a TGI of 27.6 µM.
Same read-out and setting: to `CCCCN(CCCC)C(=O)C(=O)CC(=O)c1ccc(Br)cc1` belongs > 100 µM.
In the case of `Cc1nc2c(o1)C(=O)c1ccccc1C2=NC1CCCCC1N` (configuration not stated), the TGI came to 3.16 µM.
In the case of `Cc1ccc(S(=O)(=O)N2CCCSCCSCCCSCC2)cc1`, the TGI is > 100 µM.
Still for that read-out and setting: to `O=C(NCCN1C(=O)CN=C(c2ccc(Cl)cc2)c2cc(Cl)ccc21)OCc1ccccc1` belongs 83.9 µM; to `Cc1ccc2c(c1)NC(c1ccc(C(=O)O)cc1)c1cccn1-2` (configuration not stated), 71.6 µM; to `Oc1c(C2=NNC(c3cccs3)C2)ccc2ccccc12` (configuration not stated), > 100 µM.
Consider `Cc1cc(NC(=O)C2c3ccccc3C(=O)N(CC(C)C)C2c2cccs2)no1` (configuration not stated), for which the GI50 is > 100 µM and the TGI was > 100 µM.
With `CNNC1=NS(=O)(=O)c2cc(C)c(Cl)cc2S1`, the TGI is > 10 µM.
Consider `O/N=C1\CCc2cc(-c3nc(C4CCNCC4)[nH]c3-c3ccncc3)ccc21`, for which the GI50 is > 25 µM and the TGI was > 25 µM.
Regarding `CC(=O)c1ccc(Nc2cc(-n3ccnc3)nc3ccccc23)cc1`, the GI50 was 24.7 µM and the TGI is > 100 µM.

The record behind these values is PubChem BioAssay (NCI).
